Measurements reported in PubChem BioAssay AID2546 (National Center for Advancing Translational Sciences (NCATS), 2010).
The whole screen tested about 310,000 compounds, of which about 11,000 (3.5%) were called active. The shares of active, inactive and inconclusive entries below differ from those in the screen. Calls come from the whole dose curve; as a rule, active = well fitted inhibition curve with a large enough effect; inconclusive = small, poorly fitted or top-dose-only effect, or effect the other way; inactive = flat fitted curve, though single readings scatter. No potency is given beside an inconclusive call; the fits are too rough.

test: VP16 counterscreen qHTS for inhibitors of ROR gamma transcriptional activity; details: Drosophila S2 Gal4-VP16 UAS-luciferase, luminescence, 20 h; activity, negative = inhibition: at 53.6 µM (top of the series);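 note: Gal4-VP16 expression switched on by copper sulfate through the metallothionein promoter; nearly all actives have a fitted effect of over 50% in size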
% is set by controls: 0 for no effect and ±100 for the full control effect; potency is the fitted concentration of half-maximal effect; tags give direction and shape of the fitted curve.

SMILES | Potency | activity, negative = inhibition
Cc1cccc(/C=C/C(=O)c2cc(Br)ccc(=O)c2O)c1 | inconclusive [inhibitor, single point] | 
CCCCN1CN(S(=O)(=O)c2cccs2)c2nc3ccccc3nc21 | inconclusive [inhibitor, single point] | 
CN(C)S(=O)(=O)c1cccc(C(=O)OCC(=O)c2c(N)n(C)c(=O)n(C)c2=O)c1 |  | inactive: 4.23%
CCc1ccc2nc(N(CCCN(C)C)C(=O)c3ccc4c(c3)OCCO4)sc2c1 | inconclusive [inhibitor, single point] | 
O=C(C1CC1)N1CCc2cc(S(=O)(=O)N(CCO)Cc3ccccc3)ccc21 | inconclusive [inhibitor, single point] | 
Cn1cc(/C=C(\NC(=O)c2ccccc2Cl)C(=O)NCCCn2ccnc2)c2ccccc21 |  | inactive: -5.26%
COc1ccc(C(C[N+](=O)[O-])C2(c3ccc(OC)c(OC)c3)C(=O)c3ccccc3C2=O)cc1 (configuration not stated) | active: 17.8 µM | 
C(=C\c1ccccn1)/c1ccncc1 |  | inactive: 16.3%
Cc1ccccc1NC(=S)NNC(=O)c1csc2c1CCC(C)C2 (configuration not stated) | inconclusive [inhibitor, single point] | 
Cc1cccc(/C(N)=N/OC(=O)c2cccc3ccccc23)c1 | active: 5.62 µM | 
O=C(N/N=C\C=C\c1ccc(Br)cc1)c1ccc2c(c1)OCO2 | active: 4.47 µM | 
CC1=CC(C)(C)NC(=S)N1c1ccc(C)cc1 | active: 3.55 µM | 
CCOc1cc(/C=C2/C(=O)ON=C2C)ccc1OCc1ccccc1F | inconclusive [inhibitor, single point] | 
O=C(NCCc1ccccn1)C(F)(F)C(F)(F)C(F)(F)C(F)(F)C(F)(F)C(F)F | inconclusive [activator, single point] | 
COc1ccc(C(=O)N/N=C/c2cc3ccccc3[nH]c2=S)cc1 | active: 8.91 µM | 
FC(F)(F)c1ccccc1NC(=S)N/N=C1\CC2CC=CC12 (configuration not stated) | active: 14.1 µM | 
CCOc1cccc2sc(Nc3nc4ccc(NC(C)=O)cc4s3)nc12 | active: 3.98 µM | 
O=C(Nc1nccs1)c1nc(-c2ccccc2)n(-c2ccccc2)n1 |  | inactive: -14.6%
CCc1ccc(NC(=O)COc2ccc(/C=C(/C#N)c3nc4ccccc4[nH]3)cc2OC)cc1 | active: 3.16 µM | 
CCN(CC)c1ccc(NC(=O)COc2ccccc2C#N)cc1S(=O)(=O)Nc1ccccc1OC |  | inactive: -14.9%
Cc1ccc2nc(C3CCCCC3)[nH]c2c1 | inconclusive [activator, partial curve] | 
NC[C@@H]1O[C@H](C23CC4CC(CC(C4)C2)C3)Cc2c1ccc(O)c2O | inconclusive [inhibitor, partial curve] | 
CCCC(=O)NC(c1ccccc1OC)c1ccc2cccnc2c1O (configuration not stated) | active: 2.24 µM | 
Nc1nc(-c2cccs2)cs1 | inconclusive [inhibitor, single point] | 
CC(C)Cn1c(-c2ccco2)n[nH]c1=S | inconclusive [inhibitor, single point] | 
CCOC(=O)N/N=C/C(Cl)=C/c1ccccc1 | inconclusive [activator, partial curve, poor fit] | 

SMILES | Potency | activity, negative = inhibition
Cc1ccc2c(c1[N+](=O)[O-])C(=O)c1ccccc1C2=O | inconclusive [activator, single point] | 
CC1=C(C(=O)Nc2ccccc2C)C(c2cccs2)NC(=S)N1 (configuration not stated) |  | inactive: -1.89%
Cn1/c(=N\NC(=O)c2ccccc2Cl)sc2ccccc21 |  | inactive: 6.74%
Cc1onc(-c2c(Cl)cccc2Cl)c1-c1nnc(-c2ccc(Cl)cc2)o1 | inconclusive [inhibitor, single point] | 
CCCCCC1CC(CC#CCN2CCOCC2)C(=O)O1 (configuration not stated) |  | inactive: 1.02%
Cc1ccc(-c2nc(CSCC(=O)Nc3cc(C)on3)c(C)o2)cc1 | active: 6.31 µM | 
O=C1C2=CC[C@H]3C(=O)N(c4cccc(Oc5ccccc5)c4)C(=O)[C@@H]3[C@@H]2[C@H](O)[C@@H]2O[C@H]12 | inconclusive [inhibitor, partial curve, poor fit] | 
FC(F)(F)c1ccccc1/C=N/n1c(COc2ccccc2)n[nH]c1=S | active: 10 µM | 
CC1CCC/C(=C(\C#N)c2nc(-c3cc4ccccc4oc3=O)cs2)C1 (configuration not stated) | inconclusive [activator, single point] | 
CCN(CC)c1ccc(-c2nn3c(-c4ccccc4OC)nnc3s2)cc1 | active: 14.1 µM | 
CC(C)C1Cc2c(sc3c2c(=O)n(Cc2ccccc2)c2nncn32)CO1 (configuration not stated) | inconclusive [inhibitor, partial curve, poor fit] | 
O=S(=O)(c1ccccc1)N1CCN(c2nc(-c3cccs3)nc3ccccc23)CC1 | inconclusive [activator, single point] | 
O=C(Nc1cccc([N+](=O)[O-])c1)c1ccc2ccccc2c1O | active: 2.82 µM | 
COc1ccc2c(c1)-c1c(ssc1=S)C(C)(C)N2S(=O)(=O)c1ccc(C)cc1 |  | inactive: -1.23%
COc1cccc(Cn2c(-c3nonc3N)nc3ccccc32)c1 |  | inactive: -11.3%
COC(=O)c1ccc(-n2cc(-c3ccc(OC)cc3)[nH]c2=S)cc1 | inconclusive [inhibitor, single point] | 
CC(=O)N1CC(C)Sc2ccc(S(=O)(=O)NCCc3ccc(C)cc3)cc21 (configuration not stated) | inconclusive [inhibitor, single point] | 
C[C@H](NC(=O)c1[nH]cnc1C(=O)Nc1ccccc1)C(=O)OC(C)(C)C | active: 11.2 µM | 
CCOc1ccccc1NC(=S)NC(=O)C1CC1 | active: 0.708 µM | 
Cn1c(SCC(=O)c2cc3ccccc3o2)nnc1-c1ccccc1 | inconclusive [inhibitor, single point] | 
Cc1ccc(C)c(NC(=O)c2ccccc2O)c1 | inconclusive [inhibitor, single point] | 
CC(C)c1[nH]nc2c1C(c1ccco1)C(C#N)=C(N)O2 (configuration not stated) |  | inactive: -27.9%
Cc1ccc(OC(=O)c2cccc([N+](=O)[O-])c2)c(-n2nc3ccccc3n2)c1 | inconclusive [activator, single point] | 
CC(=O)Nc1cccc(NC(=O)C2CCCN2C(=O)Nc2cccc(C)c2)c1 (configuration not stated) |  | inactive: -1.24%
Cc1ccc(NC(=O)c2ccc(OCC3CCCO3)cc2)cc1 (configuration not stated) |  | inactive: -18.1%
COc1ccccc1/C=C/C(=O)NCC(=O)N/N=C/c1ccc(C)o1 |  | inactive: -0.538%

SMILES | Potency | activity, negative = inhibition
Cc1nn(C(C)C)c(C)c1CN1CCC(C(=O)Nc2cccc(-c3cccc(F)c3)c2)CC1 |  | inactive: -18.7%
COc1ccccc1/C=C/C=N/n1c(-c2ccccn2)n[nH]c1=S |  | inactive: 2.32%
Cn1c(CC(=O)Nc2ccccc2)cc2ccccc21 | inconclusive [activator, single point] | 
CC1CC=CC2C1C(=O)N(Cc1ccccc1)C2c1ccc(Br)cc1F (configuration not stated) |  | inactive: -19.3%
COCCNC(=O)NC1(C(F)(F)F)Oc2ccc(Cl)cc2O1 (configuration not stated) | inconclusive [inhibitor, single point] | 
S=c1nc(-c2ccco2)[nH][nH]1 |  | inactive: -2.49%
CN(C)S(=O)(=O)c1cccc(NC(=S)NC(=O)C2CCCCC2)c1 | inconclusive [inhibitor, single point] | 
Cc1oc2cc3oc(=O)c(CCC(=O)NCc4ccccn4)c(C)c3cc2c1C | inconclusive [inhibitor, partial curve] | 
Cc1ccc(CNC(=O)CSc2ccsc2[N+](=O)[O-])cc1 | inconclusive [activator, partial curve] | 
CCCCN1C(=O)Cc2c1nc(N)c1c(N)nc(N(CCC)CCC)c(C#N)c21 | active: 22.4 µM | 
N#C/C(=C\c1ccc([N+](=O)[O-])cc1)C(=O)Nc1ccccc1O | inconclusive [inhibitor, single point] | 
O=C(CSc1nc(CCC2CCCC2)nc2ccccc12)NCc1ccc2c(c1)OCO2 | inconclusive [inhibitor, single point] | 
CCC(C)c1ccccc1NC(=S)NC(=O)c1ccco1 (configuration not stated) | active: 3.16 µM | 
C=CCNC(=S)NNC(=O)c1cccc2ccccc12 |  | inactive: -27.2%
CN(CCc1ccccn1)Cc1ccc(Cl)cc1 |  | inactive: 11.7%
O=C(CCl)Nc1ccccc1C(=O)c1ccccc1 | inconclusive [inhibitor, single point] | 
Cc1cc(C(=O)CN2CCC(C)CC2)c(C)n1-c1ccc(F)cc1 | inconclusive [inhibitor, single point] | 
O=C(/C=C/c1ccccc1)NC(=S)Nc1ccccc1O | inconclusive [inhibitor, single point] | 
Cc1noc(C)c1CSc1ccccc1C(=O)O |  | inactive: -3.58%
O=C(Nc1nnc(SCc2ccc(F)cc2)s1)C1Cc2ccccc2CN1C(=O)c1ccco1 (configuration not stated) | inconclusive [inhibitor, single point] | 
Cn1ncc2c(NNC(=O)c3ccc(Cl)cc3Cl)ncnc21 | active: 7.08 µM | 
CC(Nc1nc(=S)nc(Nc2ccc(F)cc2)[nH]1)c1ccccc1 (configuration not stated) | inconclusive [inhibitor, single point] | 
Cc1c(-c2ccccc2)n[nH]c1C(=O)N=Nc1c(O)[nH]c2ccccc12 | inconclusive [inhibitor, single point] | 
C/C(CC(=O)N(C(C)C)C(C)C)=N\NC(=O)COc1ccc(Br)cc1Br | inconclusive [inhibitor, single point] | 
CCOC(=O)C1CCN(Cc2cccc(Oc3ccc(Cl)cc3)c2)CC1 |  | inactive: 12.5%
